According to PubChem BioAssay AID588855 (National Center for Advancing Translational Sciences (NCATS), 2011):
Out of some 410,000 compounds screened, about 5,000 (1.2%) were called active. The shares of active, inactive and inconclusive entries below differ from those in the screen. The call rests on the fitted dose curve; in most records, active means well fitted inhibition curve with a large enough effect; inconclusive means small, poorly fitted or top-dose-only effect; inactive means no such curve, though single readings can be large or run the other way. A potency beside an inconclusive call is a rough fit, not a confirmed value.

Test: qHTS for Inhibitors of TGF-b; further: nearly all actives have a fitted effect of over 65% in size
Settings: HepG2 CAGA-GFP TGF-b/SMAD3 reporter, GFP fluorescence, 18 h, TGF-beta stimulated, 500 pg/mL final; series mostly up to 46.1 µM
Method in brief: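 HEPG2 CAGA-GFP cells (1000/well, DMEM with 1% FBS) were pre-incubated 2 h at 37 degrees C, given compound by pin tool, then stimulated with TGF-beta at 500 pg/mL final for 18 h before per-cell GFP fluorescence imaging.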
Potency means the concentration at half of the fitted maximal effect; tags describe the fitted curve by direction and shape.

| Structure (SMILES) | Potency |
| --- | --- |
| O=S(=O)(c1ccc(NC(=S)Nc2ccc(OC(F)F)cc2)cc1)N1CCOCC1 | inconclusive: 3.98 µM [inhibitor, full curve] |
| NC(Cc1ccc(Cl)cc1)c1csc(Nc2ccc(C(F)(F)F)cn2)n1 (stereo not drawn) | inconclusive: 35.5 µM [inhibitor, single point] |
| Cc1cc(NC(=O)C(C)Sc2nnc(NCc3ccco3)s2)no1 (stereo not drawn) | inconclusive: 14.1 µM [inhibitor, single point] |
| CCOC(=O)c1sc(-c2ccccc2)nc1C | inconclusive: 0.447 µM [inhibitor, partial curve, poor fit] |
| O=C(/C=C/c1c(F)cccc1Cl)Nc1ccncc1 | inconclusive: 0.631 µM [inhibitor, partial curve, poor fit] |
| Cc1ccc(C)c(NC(=O)c2nc(S(=O)(=O)Cc3ccc(F)cc3)ncc2Cl)c1 | active: 3.55 µM |
| Cc1ccc(/C=C/C(=O)N2CCN(c3ncccn3)CC2)o1 | active: 10 µM |
| CCC(C)Sc1ccc(-c2nc3cc(C)ccn3c2NC2CCCCC2)cc1 (stereo not drawn) | inconclusive: 35.5 µM [inhibitor, single point] |
| FC(F)(F)c1ccccc1Cc1c(C2CCCCC2)nc2ccc(Cl)cn12 | inconclusive: 35.5 µM [inhibitor, single point] |
| CC(=O)c1cccc(NC(=O)c2sc(Cl)nc2C)c1 | inactive |
| O=C(NCCCN1CCN(c2ccccc2F)CC1)c1ccc2nc(CCc3ccccc3)oc2c1 | inconclusive: 15.8 µM [inhibitor, single point] |
| O=c1[nH]c(C2CCN(S(=O)(=O)c3ccccc3C(F)(F)F)CC2)nc2c1nnn2Cc1cccc(F)c1 | inconclusive: 17.8 µM [inhibitor, partial curve, poor fit] |
| COC(=O)c1ccc(CSc2n[nH]c(C)n2)o1 | inactive |
| CCOc1ccc(N(CC(=O)NN=C2CCCC2)S(C)(=O)=O)cc1 | inactive |
| Cc1c(C(=O)NCc2ccc(C(C)C)cc2)sc(=O)n1Cc1cccc(F)c1 | inconclusive: 35.5 µM [inhibitor, single point] |
| CCOC(=O)c1cnc(C(F)(F)F)nc1Oc1ccccc1 | inconclusive: 35.5 µM [inhibitor, single point] |
| Cc1c(NC(=O)c2cccs2)cccc1-c1nc2cc(Cl)ccc2o1 | inconclusive: 10 µM [inhibitor, partial curve, poor fit] |
| CCN(CC)C(=O)c1ccc(C(=O)c2c(C)cc(C)cc2C)cc1 | inconclusive: 35.5 µM [inhibitor, single point] |
| COc1ccc(CNC(=O)c2cccs2)cc1 | inconclusive: 6.31 µM [inhibitor, single point] |
| CCN(CC)c1ccc(S(=O)(=O)N2CCOCC2)cc1NC(=O)CNCc1cccc(Cl)c1 | inconclusive: 22.4 µM [inhibitor, single point] |
| COc1ccccc1NS(=O)(=O)c1cccc(C(=O)N/N=C/c2ccc3c(c2)OCCO3)c1 | inactive |
| CC1Cc2ccccc2N1C(=O)c1ccc(F)c(S(=O)(=O)N2CCOCC2)c1 (stereo not drawn) | inactive |

| Structure (SMILES) | Potency |
| --- | --- |
| COc1cccc(OC)c1CN1CCCC(C(=O)c2ccccc2SC)C1 (stereo not drawn) | inconclusive: 35.5 µM [inhibitor, single point] |
| CCc1ccc(NC(=O)CSc2nc(-c3ccc(C)cc3)nc3c2Cc2c(CO)cnc(C)c2O3)cc1 | inactive |
| CCOc1ccc2nc(N3CCCC(C(=O)Nc4ccccc4CC)C3)sc2c1 (stereo not drawn) | inactive |
| O=S(=O)(NC1CC(NS(=O)(=O)OCC(Cl)(Cl)Cl)C2CCCCC12)OCC(Cl)(Cl)Cl (stereo not drawn) | inconclusive: 35.5 µM [inhibitor, single point] |
| O=Cc1cc(Cl)ccc1OCCN1CCC(Cc2ccccc2)CC1 | inconclusive: 35.5 µM [inhibitor, single point] |
| CCCCc1ccc(S(=O)(=O)Nc2ccc(C)c(NS(C)(=O)=O)c2)cc1 | inconclusive: 25.1 µM [inhibitor, single point] |
| Cn1c(=O)n(C)c2cc([N+](=O)[O-])c(N3CCN(S(C)(=O)=O)CC3)cc21 | inactive |
| Brc1cnc(N2CCOCC2)nc1N1CCCCC1 | inconclusive: 0.355 µM [inhibitor, full curve] |
| Cc1ccc(CN2CCC(Oc3cccc(C(=O)N(C)CCN(C)C)c3)CC2)cc1C | inactive |
| COc1ccc(-c2[nH]nc(-c3ccccc3)c2-c2nc3ccccc3[nH]2)cc1 | inconclusive: 15.8 µM [inhibitor, single point] |
| C[C@]12C(=O)N(c3ccc(C(F)(F)F)cc3)C(=O)N1[C@@H]1c3ccccc3OC[C@@H]1[C@H]2c1ccccc1 | inconclusive: 11.2 µM [inhibitor, single point] |
| CCOC(=O)C[n+]1c(C)csc1C | inactive |
| CSc1ccc(OC2(C)CCN(Cc3ccc4c(c3)OCCO4)C2)cc1 (stereo not drawn) | inconclusive: 35.5 µM [inhibitor, single point] |
| O=C(NC1CCCC1)c1cc2nc(-c3ccco3)cc(C(F)(F)F)n2n1 | inactive |
| Cc1nnc2c(N(C)S(=O)(=O)c3ccccc3)nc3ccccc3n12 | inconclusive: 5.01 µM [inhibitor, full curve] |
| COc1ccc(C)cc1S(=O)(=O)N1CCCC(C(=O)N2CCN(c3ccccc3)CC2)C1 (stereo not drawn) | inconclusive: 10 µM [inhibitor, partial curve] |
| CC(=O)Nc1ccc(C(=O)N2CCCC(c3cc(C(=O)NCc4ccccc4)no3)C2)cc1 (stereo not drawn) | inactive |
| Cc1cccc(NC(=O)c2c(NC(=O)c3ccccc3)sc3c2CCC3)c1 | inconclusive: 25.1 µM [inhibitor, single point] |
| O=C(CNC(=O)c1ccco1)OCC(=O)c1cccc2ccccc12 | inconclusive: 3.16 µM [inhibitor, partial curve, poor fit] |
| COc1ccc(/C=c2\s/c(=C\C(=O)C(C)(C)C)[nH]c2=O)cc1O | inconclusive: 3.16 µM [inhibitor, partial curve, poor fit] |
| O=C(NCCSCc1ccccc1)c1cc(S(=O)(=O)N2CCOCC2)ccc1F | inconclusive: 3.16 µM [inhibitor, single point] |
